# Test results published in PubChem BioAssay AID2451 (National Center for Advancing Translational Sciences (NCATS), 2010).
# Where “and” joins values, the source holds several entries; their conditions need not be identical. Equal values may be shown once. The whole screen tested about 290,000 compounds, of which about 2,100 (0.72%) were called active. The inconclusive results got no clear call from the source; some entries with a clear call stand among them for comparison. Calls come from the whole dose curve; as a rule, active = well fitted inhibition curve with a large enough effect; inconclusive = small, poorly fitted or top-dose-only effect, or effect the other way; inactive = flat fitted curve, though single readings scatter. A potency beside an inconclusive call is a rough fit, not a confirmed value.
# Target: Fructose-bisphosphate aldolase (Giardia intestinalis (strain ATCC 50803 / WB clone C6)) (UniProt A8B2U2)
# Sequence of UniProt A8B2U2 (A8B2U2 whole entry, looked up): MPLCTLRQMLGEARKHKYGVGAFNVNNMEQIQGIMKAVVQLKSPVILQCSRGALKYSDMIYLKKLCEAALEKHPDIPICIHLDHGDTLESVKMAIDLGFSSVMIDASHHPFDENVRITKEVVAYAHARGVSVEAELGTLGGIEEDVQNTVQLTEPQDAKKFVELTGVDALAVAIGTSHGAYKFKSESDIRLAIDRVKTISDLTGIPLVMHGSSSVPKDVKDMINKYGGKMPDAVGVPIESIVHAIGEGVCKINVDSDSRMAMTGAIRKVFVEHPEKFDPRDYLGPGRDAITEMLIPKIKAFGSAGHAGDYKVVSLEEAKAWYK
# Test: qHTS Assay for Inhibitors of Fructose-1,6-bisphosphate Aldolase from Giardia Lamblia; note: nearly all actives have a fitted effect of over 55% in size
# Conditions: purified Giardia FBPA; activity, negative = inhibition: at 59.6 µM (top of the series) unless noted
# In short: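 40 nM FBPA preincubated 10 min at RT with compound (up to 57.5 uM final), then substrate plus GAPDH/TPI/NAD/arsenate coupling and diaphorase/resazurin added. Fluorescence read after 20 min at RT, 525/598 nm.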
# % is set by controls: 0 for no effect and ±100 for the full control effect; potency is the fitted concentration of half-maximal effect; tags give direction and shape of the fitted curve.
Structure (SMILES),"activity, negative = inhibition",Potency
CN(C)CCNC(=O)c1sc2nc(-c3ccccc3)cc(C(F)(F)F)c2c1N,inactive: -7.11%,
CCOCCCNCC(=O)Nc1ccc(S(=O)(=O)NC(C)CC)cc1 (configuration not stated),,"inconclusive: 5.61 µM [inhibitor, single point]"
C=CCNC(=S)N/N=C/c1ccc(C(F)(F)F)cc1,,"inconclusive: 15.8 µM [inhibitor, single point]"
NC(=O)c1ccc(-c2ncc(-c3ccccc3)o2)cc1,inactive: 0.954%,
O=C(O)CC1OCC=C2CN3CCC45C6=CC(=O)C(=O)C([N+](=O)[O-])=C6NC4C1C2CC35 (configuration not stated),,active: 1.26 µM
Cc1ccc(NC(=S)NCC2CCN(C(C)c3ccccc3)C2)cc1 (configuration not stated),,"inconclusive: 19.9 µM [inhibitor, single point]"
CCCCCC(O)(c1ccc(OC)cc1)C(CN1CCOCC1)c1ccccc1 (configuration not stated),inactive: -13.9%,
Nn1c(SCC(=O)Nc2cc(C(F)(F)F)ccc2Cl)nncc1=O,,"inconclusive: 22.4 µM [inhibitor, partial curve]"
COc1cc(/C=N/n2c(=S)[nH]nc(C)c2=O)cc([N+](=O)[O-])c1O,,active: 15.8 µM
CCCNc1nc2c(c(=O)n(C)c(=O)n2C)n1CCc1ccccc1,inactive: -6.85%,
CC1(C)CCc2c([nH]c3ccccc3c2=O)O1,inactive: -3.47%,
Nc1nonc1NC(=O)CSc1nc2ccccc2s1,inactive: -16.6%,
Cc1ccccc1OCC(=O)NNC(=S)NC(=O)c1ccco1,,"inconclusive: 15.8 µM [activator, partial curve]"
CC(C)C[C@@H](CC(=O)N[C@@H](CCC(=O)O)CC(=O)O)NC(=O)[C@@H]1CCCC[C@H]1NC(=O)C[C@@H](NC(=O)C[C@H](Cc1c[nH]c2ccccc12)NC(=O)[C@@H]1CCCC[C@H]1N)C(C)C,,"inconclusive: 15.8 µM [inhibitor, single point]"
CC(=O)N1CCN(CC(=O)Nc2ccc(C)c(S(=O)(=O)N(C)C)c2)CC1,,"inconclusive: 17.7 µM [inhibitor, single point]"
O=C(N/N=C/c1ccccn1)c1ccc([N+](=O)[O-])cc1Cl,inactive: 13.9%,
O=C(NC(=S)N(CCc1ccccc1)CCc1ccccc1)c1ccco1,,"inconclusive: 19.9 µM [activator, single point]"
CCOC(=O)c1c(N)sc(C(=O)Nc2ccccc2)c1C,inactive: -6.78%,
CCCS(=O)(=O)N1CCN(C2CCC(C)CC2)CC1 (configuration not stated),,"inconclusive: 19.9 µM [inhibitor, partial curve]"
Cc1ccccc1Nc1oc(-c2ccccc2)nc1-c1cccc2ccccc12,inactive: -0.554%,
Cn1c(=O)c2cc(NCc3ccccc3)nnc2n(C)c1=O,,"inconclusive: 35.4 µM [inhibitor, single point]"
Cc1ccc2oc(=O)c3cnn(CC(=O)Nc4cc(-c5cccc(F)c5)no4)c3c2c1,inactive: 6.59%,
COc1cc(Sc2ccc(C)cc2)c(OC)cc1N,,"inconclusive: 6.29 µM [inhibitor, partial curve]"
Oc1ccc2ccccc2c1N=Nc1ccccc1F,,"inconclusive: 15.8 µM [inhibitor, single point]"

Structure (SMILES),"activity, negative = inhibition",Potency
CC1Cc2ccccc2N1C(=O)CNCCCN(C)C (configuration not stated),,"inconclusive: 22.3 µM [inhibitor, single point]"
Cc1ccccc1Cn1cc(S(=O)(=O)CC(=O)Nc2nccs2)c2ccccc21,inactive: -2.01%,
COc1ccc(OCC(=O)c2c(O)c3ccccc3oc2=O)cc1,,"inconclusive: 17.7 µM [inhibitor, partial curve]"
O=[N+]([O-])c1cccc(-c2noc(-c3ccco3)n2)c1,inactive: 7.87%,
COc1ccc(N2C(=O)NC(=O)/C(=C/c3ccc([N+](=O)[O-])s3)C2=O)cc1,,"inconclusive: 17.7 µM [inhibitor, single point]"
CC(C)C1C(C#N)=C(N)SC(N)=C1C#N,,"inconclusive: 5.61 µM [inhibitor, full curve]"
COC/C=C/C1=CC2=CC(=O)C(C)(OC(=O)c3cnc4ccccc4n3)C(=O)C2=CN1CCCCO (configuration not stated),,"inconclusive: 1.58 µM [inhibitor, full curve] and inconclusive: 1.26 µM [inhibitor, partial curve]"
COc1cc(NC(C)C(=O)N2CC(C)OC(C)C2)cc(OC)c1 (configuration not stated),,"inconclusive: 17.7 µM [inhibitor, partial curve]"
CCC(N)C(O)c1ccc(O)c(O)c1 (configuration not stated),,"inconclusive: 9.98 µM [inhibitor, partial curve]"
CCn1c2ccccc2c2cc(NC(=O)CNC)ccc21,,"inconclusive: 19.9 µM [inhibitor, partial curve]"
O=C(O)/C=C/C(=O)NCc1ccccn1,,"inconclusive: 17.7 µM [inhibitor, single point]"
COC(=O)C1=C(O)/C(=C\c2cc(C)n(-c3ccccc3F)c2C)N=C1C,,active: 12.6 µM
COc1ccc(/C=N/Nc2cc(N(C)C)nc(N(C)C)n2)cc1,,"inconclusive: 1.26 µM [inhibitor, full curve]"
COc1ccc(-n2nc(C(=O)NCC(=O)N3CCCCC3)c3ccccc3c2=O)c(OC)c1,inactive: 7.62%,
CC(=O)n1cc([C@H]2C=C(C(=O)N3CCN(Cc4ccc5c(c4)OCO5)CC3)O[C@@H](OCCCCO)C2)c2ccccc21,inactive: 2.03%,
Cc1nc(Cl)c2c(n1)N(CC(N)=O)C(=O)CO2,inactive: 0.423%,
Cc1c(C#N)c(O)[nH]c(=O)c1N=Nc1ccc(S(N)(=O)=O)cc1,,"inconclusive: 28.2 µM [inhibitor, partial curve]"
CCOc1ccc2nc(COC(=O)c3ccncc3)c(C(=O)c3ccccc3)[n+]([O-])c2c1,inactive: -8.04%,
Cc1cccc(C(=O)Nc2nnc(-c3cccnc3)o2)c1,,active: 15.8 µM
CCNC(=O)/C(C#N)=C/c1c(N2CCOCC2)nc2ccccn2c1=O,inactive: 0.708%,
CCOC(=O)c1ccc(NC(=O)Nc2ccn(C)n2)cc1,inactive: 0.616%,
CC1CCc2nc(NC(=O)Nc3ccc4c(c3)OCO4)sc2C1 (configuration not stated),inactive: 16.6%,
Cc1ccc(-c2nnc(Nc3ccc(C(N)=O)cc3)c3ccccc23)cc1S(=O)(=O)NCC1CCCO1 (configuration not stated),inactive: 0.418%,
O=C(CCn1c(=O)oc2ccccc21)N1CCC2(CC1)OCCO2,inactive: -0.0626%,

Structure (SMILES),"activity, negative = inhibition",Potency
Cc1cc(/C=C(\C#N)C(=O)O)c(C)n1CCC(C)C,,"inconclusive: 17.7 µM [activator, single point]"
Cc1ccc(N2C(=O)[C@@H]3[C@H](C2=O)C2CCCN2[C@@H]3C(=O)c2ccccc2)cc1 (some centres not stated),,"inconclusive: 15.8 µM [inhibitor, partial curve]"
COc1ccccc1CNC(=O)CSc1ccc(-c2cccc([N+](=O)[O-])c2)nn1,inactive: -0.938%,
Cc1ccc(C(=O)OCC(=O)c2ccccc2)cc1,inactive: -8.92%,
CC(=O)c1cc(C(=O)Nc2ccccc2C(=O)O)oc1C,,"inconclusive: 20 µM [inhibitor, partial curve]"
c1ccc2[nH]c(SN3CCOCC3)nc2c1,,active: 3.55 µM
Cc1cc(C)nc(N/N=C/c2ccc3c(c2)OCCO3)n1,inactive: -5.88%,
C/C1=C2N=C(/C=C3N=C(/C(C)=C4\[N-]C(C)(C5N=C1C(C)(CCC(=O)NCC(C)OP(=O)([O-])O[C@H]1C(O)C(n6cnc7cc(C)c(C)cc76)O[C@@H]1CO)C5CC(N)=O)C(C)(CC(N)=O)C4CCC(N)=O)C(C)(CC(N)=O)C\3CCC(N)=O)C(C)(C)C/2CCC(N)=O.[CH2-]C1OC(n2cnc3c(N)ncnc32)C(O)C1O.[Co] (some centres not stated),,"inconclusive: 5 µM [inhibitor, full curve, poor fit]"
Cc1ccc(C(=O)/C=C\Nc2ccc(C)c(C)c2)cc1,inactive: 17.6%,
COCCCn1c(N)c(C(=O)NCc2ccco2)c2nc3ccccc3nc21,,"inconclusive: 31.5 µM [inhibitor, single point]"
CNC(=S)N/N=C/c1ccccc1OCC(=O)O,,active: 19.9 µM
O=c1c(O)c(-c2cc(O)c(O)c(O)c2)oc2cc(O)cc(O)c12,,"inconclusive: 7.06 µM [inhibitor, partial curve] and inconclusive: 15.8 µM [inhibitor, partial curve] and inconclusive: 9.98 µM [inhibitor, partial curve]"
CCN(CC)CCCNc1cc(C(F)(F)F)c(C#N)c2nc3ccccc3n12,,"inconclusive: 3.16 µM [inhibitor, partial curve]"
CCN(CC)S(=O)(=O)c1ccc(NC(=O)CNC2CCCCC2)cc1,,"inconclusive: 15.8 µM [inhibitor, partial curve]"
O=C(NNC(=O)c1ccccc1[N+](=O)[O-])Nc1ccc(Cl)cc1,inactive: -0.664%,
O=C(CSc1nc(O)c(Cc2ccccc2)c(=O)[nH]1)Nc1nnc(SCc2ccccc2)s1,,"inconclusive: 15.8 µM [activator, partial curve, poor fit]"
COc1ccc(-c2csc(NC(=O)c3ccc(OCC(=O)N4CCOCC4)c(OC)c3)n2)cc1OC,inactive: 1.24%,
O=C(/C=C\NCC(=O)c1ccccc1)c1ccc(F)cc1,inactive: -11.7%,
Cc1ccc2c(COC(=O)c3ccc(NC(=O)CC#N)cc3)cc(=O)oc2c1C,,"inconclusive: 2.82 µM [activator, single point]"
CCCC(c1nnnn1CCOC)N(Cc1cc2cc(C)c(C)cc2[nH]c1=O)CC1CCCO1 (configuration not stated),,"inconclusive: 15.8 µM [inhibitor, partial curve]"
O=C(NC(=S)Nc1ncc(Br)cc1Br)c1ccccc1,,active: 6.31 µM
COc1cc(NC(=O)C2CCCCC2)c(OC)cc1NC(=O)c1ccco1,inactive: -1.73%,
COc1ccc(/C(N)=N/OC(=O)Cc2cccs2)cc1,inactive: 2.78%,
O=C(O)CCNC1C=CS(=O)(=O)C1 (configuration not stated),,"inconclusive: 15.8 µM [inhibitor, single point]"
